Over roughly 110,000 compounds, “z-score” has its median near -0.1; the highest 2% begin near 2. This is one part of the list. The source made the active and inactive calls.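 How the source made its calls: active means z-score in the third read window above 3 or below -3; inactive means the rest.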

The target of the test is Metabotropic glutamate receptor 8 (Rattus norvegicus) (UniProt P70579). In words: rat mGluR8 modulators via GIRK flux, primary screen, cell-based, thallium flux, HTS (AID 488969). Particulars: HEK293 rat mGluR8, GIRK (G protein-gated inwardly rectifying potassium channel) thallium flux, FluoZin2; at 10 µM; stronger effect = higher value; submaximal glutamate (EC20) added with thallium.
Sequence of UniProt P70579 (P70579 whole entry, looked up): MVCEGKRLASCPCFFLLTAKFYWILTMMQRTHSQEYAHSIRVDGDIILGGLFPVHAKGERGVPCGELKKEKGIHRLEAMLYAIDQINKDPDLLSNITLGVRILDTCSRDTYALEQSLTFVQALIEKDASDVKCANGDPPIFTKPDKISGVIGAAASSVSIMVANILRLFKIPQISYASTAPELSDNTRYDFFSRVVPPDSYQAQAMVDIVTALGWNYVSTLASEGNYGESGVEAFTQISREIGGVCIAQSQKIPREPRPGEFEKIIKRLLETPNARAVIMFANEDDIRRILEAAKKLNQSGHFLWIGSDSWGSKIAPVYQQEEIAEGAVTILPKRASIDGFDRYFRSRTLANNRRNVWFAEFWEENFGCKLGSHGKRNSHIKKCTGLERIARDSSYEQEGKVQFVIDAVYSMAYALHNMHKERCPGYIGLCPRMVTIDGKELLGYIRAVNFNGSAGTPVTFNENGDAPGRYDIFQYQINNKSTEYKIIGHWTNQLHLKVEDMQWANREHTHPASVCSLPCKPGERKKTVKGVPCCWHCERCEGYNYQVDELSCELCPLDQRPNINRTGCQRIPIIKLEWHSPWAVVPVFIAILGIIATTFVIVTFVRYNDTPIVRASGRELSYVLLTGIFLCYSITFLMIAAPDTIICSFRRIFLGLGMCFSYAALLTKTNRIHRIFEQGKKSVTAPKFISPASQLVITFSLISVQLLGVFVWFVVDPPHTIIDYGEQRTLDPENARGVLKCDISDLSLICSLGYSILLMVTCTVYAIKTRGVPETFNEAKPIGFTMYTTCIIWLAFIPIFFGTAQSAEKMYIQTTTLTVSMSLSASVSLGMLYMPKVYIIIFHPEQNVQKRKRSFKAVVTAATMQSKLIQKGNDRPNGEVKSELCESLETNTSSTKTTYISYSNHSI
In the case of `CCN(CC(=O)NC(C)(C)C)C(=O)CCl`, the z-score is -0.355.
Turning to `CCOC(=O)C(=Cc1ccc(-c2ccsc2C(=O)OC)o1)C(=O)OCC`, the z-score is -0.148.
For `CCn1c(SCC(=O)NCC(=O)Nc2ccc(F)cc2)nnc1-c1ccncc1`, the z-score was -0.775.
In the case of `O=C(NC1CCCCCC1)c1cc(S(=O)(=O)N2CCOCC2)ccc1N1CCCCC1`, the z-score was -0.356.
`COCCN1C(=O)c2ccccc2C(C(=O)NCCN(C)C)C1c1ccc(F)cc1` (stereo unspecified) displayed a z-score of 0.0583.
In the case of `CN(C)CC(=O)Nc1nc(-c2ccccc2)cs1`, the z-score is 0.193.
`COc1ccc(C)cc1NC(=O)C(OC(=O)CNC(=O)c1ccc(Oc2ccccc2)cc1)c1ccccc1` (stereo unspecified) yielded a z-score of 0.0343.
In turn, `COc1ccc(N(CN2C(=O)C3CC=CCC3C2=O)C(=O)c2ccco2)cc1` (stereo unspecified) yielded a z-score of -0.221.
Regarding `C=CCc1ccccc1OCC(O)CN1CCN(c2ccccc2OC)CC1` (stereo unspecified), the z-score is -0.754.
Consider `N#C/C(=C\Nc1ccc2c(c1)OCCO2)c1nc2ccccc2[nH]1`, for which the z-score is -0.254.
As for `O=C(CCCc1nc(-c2ccc(Cl)cc2)no1)Nc1cccnc1`, the z-score is 1.77.
In turn, `O=C(O)C1CCCCC1C(=O)Nc1ccc(Cl)cc1` (stereo unspecified) showed a z-score of -0.515.
As for `CCOc1ccc(C(=O)Nc2cc(C)c3c(=O)oc4ccccc4c3n2)cc1`, the z-score is -0.345.
As to `O=C(COC(=O)C1COc2ccccc2O1)NC(=O)NC1CCCCC1` (stereo unspecified), the z-score was -0.171.
The value for `Clc1ccc(N2CCCCCC2)nn1` was 0.0183.
In the case of `COc1ccc(C(=O)OC2CCN(C)CC2)cc1`, the z-score came out at 0.429.
For `Cn1c(=O)c(=O)n(C)c2cc(S(=O)(=O)N3CCOCC3)ccc21`, the z-score was determined as 0.162.
As for `O=C(Nc1cccc(Cl)c1N1CCCC1)c1ccc(Br)o1`, the z-score turned out to be 0.567.
The value for `Cc1ccc2nc(-c3ccncc3)cc(-c3ccccc3)c2c1` was -0.221; that for `CCc1ccc(C(=O)COC(=O)CNC(=O)c2ccc(N3C(=O)c4ccccc4C3=O)cc2)cc1` was -0.209; that for `Cc1coc2c1c(C)cc1oc(=O)c(Cc3ccccc3)c(C)c12` was -0.0677.
On to `Cc1cc(Br)ccc1NC(=O)C(C)c1ccc([N+](=O)[O-])cc1` (stereo unspecified), for which the z-score was -0.0761.
The value for `CCN(CC)CCCN1C(=O)C(=O)/C(=C(/O)c2ccc3c(c2)OCCO3)C1c1ccco1` (stereo unspecified) was 0.529; that for `Cc1ccccc1Nc1n[nH]c(C)c1[N+](=O)[O-]` was -0.305.
With `O=C(CN(c1ccc(F)cc1)S(=O)(=O)c1ccc2c(c1)OCCO2)NCc1cccnc1`, the z-score came to 0.0905.
The value for `COc1ccc(NS(=O)(=O)c2ccc(NC(=S)NC(=O)c3ccc(Br)cc3)cc2)nn1` was -0.0905; that for `COc1ccc(/C=N/NC(=O)OC(C)(C)C)cc1OC` was -0.181.
Consider `N/C(=N\OC(=O)C1CCCCC1)c1ccccn1`, for which the z-score amounted to 0.187.
`O=C(/C=C/c1ccc([N+](=O)[O-])cc1)NCc1ccco1` registered a z-score of -0.0236.
With `CC(O)CNc1nc2c(c(=O)n(C)c(=O)n2C)n1Cc1cccc(C(F)(F)F)c1` (stereo unspecified), the z-score worked out at 0.369.
For the molecule `CCC(C)C(=O)Nc1nc(C)c(-c2csc(Nc3ccc(Cl)cc3)n2)s1` (stereo unspecified), the z-score is 0.225.
The value for `COc1ccc(-n2c(-c3ccccc3)nnc2-c2ccc(Cl)cc2)cc1` was 1.13.
With `CC(=O)c1cnn(-c2cc(Oc3ccccc3C)ncn2)c1C`, the z-score worked out at 0.0466.
In the case of `CNC(=S)Nc1cc(Cl)ccc1Oc1ccccc1`, the z-score came out at 0.287.
`O=C(Nc1ccc(-c2nc3ccccc3o2)cc1)c1ccc(N2C(=O)C3C4C=CC(C4)C3C2=O)cc1` (stereo unspecified) showed a z-score of -0.241.
As for `COc1ccc([N+](=O)[O-])cc1NC(=O)CSc1ccc2ccccc2c1`, the z-score is -0.127.
Regarding `O=C(NNC(=S)Nc1ccccc1)c1cccc(Br)c1`, the z-score is active: 3.98.
The value for `N#Cc1c(-c2ccncc2)c2c([nH]c1=S)CCCC2` was -0.164; that for `O=C(Nc1ccc(F)cc1)Nc1ccccc1NS(=O)(=O)c1cccs1` was 0.235; that for `CN1CCN(CCP(=O)(c2ccccc2)c2ccccc2)CC1` was 0.661.
On to `c1ccc(-c2nc(NCc3ccco3)c3ccccc3n2)cc1`, for which the z-score is -2.27.
In turn, `Cc1cc(Cl)c(S(=O)(=O)NC2CCCC2)cc1OCC(=O)NC1CCCCC1` gave a z-score of -0.0633.
Molecule `O=C(CCSCCC(=O)NCC1CCCO1)NCC1CCCO1` (stereo unspecified) displayed a z-score of 0.111.
The value for `COc1ccc(N(C)C2=NS(=O)(=O)c3ccccc32)cc1` was 0.577.
The molecule `O=C(CN1CCC(c2nc3ccccc3[nH]2)CC1)NCc1ccc2c(c1)OCO2` came in with a z-score of -0.271.
The value for `Cc1ccc2nc(SCC(=O)Nc3ccc4sc(C)nc4c3)c(C#N)cc2c1` was 0.184; that for `COc1nc2ccc(C)cc2cc1-c1noc(-c2ccccc2)n1` was -0.186.
Regarding `CC(=O)/C(=N\Nc1cccc(Cl)c1)Sc1nnc(-c2ccccc2)n1-c1ccccc1`, the z-score is -0.0247.
`O=C(NCCN1CCOCC1)c1ccc2c(c1)N(Cc1ccccc1)C(=O)CS2` came in with a z-score of -0.416.
As for `CCOC(=O)c1c(C)[nH]c(C)c1C(=O)CSc1nc2ccccc2[nH]1`, the z-score is -0.0721.
Turning to `O=S(=O)(c1ccccc1)N1CCC(n2nnc3cc(F)ccc32)CC1`, the z-score was -0.132.
The molecule `CC1(C)Cc2c(sc3nnn(Cc4ccc(Cl)cc4)c(=O)c23)CO1` came in with a z-score of 0.796.
Take `CC1=C(C(=O)OCc2ccc3c(c2)OCO3)C(c2ccc(F)cc2)NC(=O)N1` (stereo unspecified): the z-score was -0.646.
As to `CCC(=O)c1ccc(OCC(O)CN2CCN(c3cccc(C(F)(F)F)c3)CC2)cc1` (stereo unspecified), the z-score came out at 1.05.
As to `O=C(Nc1cccn(Cc2ccccc2)c1=O)NC1CCCCC1`, the z-score was -0.501.
The molecule `O=C(Nc1ccc(F)cc1)C1CCC(N2C(=O)c3ccccc3C2=O)CC1` (stereo unspecified) yielded a z-score of -0.473.
Molecule `CC(=O)Nc1ccc(NC(=S)NC(=O)c2cc3ccccc3o2)cc1` yielded a z-score of 0.734.
On to `Cc1cc2cc(CNC(=O)c3cccs3)ccc2[nH]1`, for which the z-score was -0.241.
With `CCNc1nc(OC)nc(N2CCC(Cc3ccccc3)CC2)n1`, the z-score is -0.256.
`Cc1nc(-c2ccc(NC(=O)c3cccs3)cc2)cs1` displayed a z-score of -0.0433.
For the molecule `COc1ccc(C2CC(c3ccc(Cl)cc3)Nc3nc(NC(=O)c4ccco4)nn32)cc1` (stereo unspecified), the z-score is -0.169.
`Cc1c(CC(C)C)nc(N)c(C#N)c1-c1ccccc1` came in with a z-score of -0.104.
As to `COCCCNC(=O)C1CCN(S(=O)(=O)c2c(C)noc2/C=C\c2ccc(OC)cc2)CC1`, the z-score is -0.801.
Regarding `O=C(COc1ncnc2ccccc12)NC1CCS(=O)(=O)C1` (stereo unspecified), the z-score worked out at 0.546.
As to `COc1cc(C(=O)Nc2ccc3c(c2)C(=O)N(CCC(=O)O)C3=O)cc(OC)c1OC`, the z-score was found to be 0.118.
`Cc1cccc(NC(=O)C2(c3cccs3)CCOCC2)c1` showed a z-score of -0.122.
`COc1ccc(-c2nnc(SCC(=O)c3cc(C)n(Cc4cccs4)c3C)o2)cc1` came in with a z-score of -0.177.
For the molecule `Cc1ccc2c(CC(=O)NNC(=O)c3ccccc3)coc2c1`, the z-score was -0.29.
Regarding `Cc1ccc(OCc2ccc(C(=O)Nc3c(C)nn(Cc4c(F)c(F)c(F)c(F)c4F)c3C)o2)c([N+](=O)[O-])c1`, the z-score was -0.664.
In turn, `CC1CCN(c2nc(NCc3ccco3)nc(N)c2[N+](=O)[O-])CC1` had a z-score of -0.336.
Molecule `CC(C)=CC(=O)Nc1nnc(-c2ccc(F)cc2)s1` returned a z-score of -0.0616.
`COc1cc(NC(=O)c2cccs2)c(C(=O)OCC(=O)NC(C)c2ccccc2)cc1OC` (stereo unspecified) yielded a z-score of -0.919.
Consider `COc1cc(NC(=O)NS(=O)(=O)c2ccc(C)cc2)cc(OC)c1`, for which the z-score was -0.0788.
Molecule `O=C(Cc1ncc(C(F)(F)F)cc1Cl)Nc1ccc(F)cc1` registered a z-score of -0.0056.
Molecule `Cc1cccc(N(CC(=O)NC2CCCCC2)C(=O)c2c(C)noc2C)c1` had a z-score of -0.593.
`Cc1ccccc1Nc1nnc(C)c(=O)n1N` displayed a z-score of 0.0745.
On to `CCCc1c(O)nc(SCC(=O)NCCc2ccc(OC)c(OC)c2)[nH]c1=O`, for which the z-score is -0.0747.
Molecule `O=C(c1ccccc1)[C@H]1CC=CC[C@H]1C(=O)O` yielded a z-score of -0.127.
The value for `Brc1ccc(-c2noc(COc3ccc4ccccc4c3)n2)o1` was -0.126; that for `Cc1cc(NCCO)c2cc(O)ccc2n1` was 0.231; that for `CCOC(=O)[C@@H]1CCNC[C@@H]1c1ccccc1` was 0.253.
The value for `Cn1c(-c2ccccc2Br)n[nH]c1=S` was -0.0173.
For the molecule `COc1cc(CC(=O)OCC(=O)Nc2cccc([N+](=O)[O-])c2)cc(OC)c1OC`, the z-score was -0.514.
`C/C(=N\NC(=O)C1CC1)c1ccc(Cl)cc1` showed a z-score of -0.265.
The value for `N#C/C(=C\N1CCOCC1)c1ccccc1` was -0.213; that for `CC(NC(=O)COC(=O)Cc1ccsc1)C1CC2CCC1C2` (stereo unspecified) was -0.168; that for `CCOc1ccc(OCCCC(=O)NC2=NCCS2)cc1` was 0.00357.
The value for `O=C(CC(c1ccccc1)c1cc(Br)ccc1O)NCc1ccco1` (stereo unspecified) was -1.44.
With `CCOC(=O)c1cc(C(=O)Nc2ccccc2F)nn1C`, the z-score is -0.326.
With `CSC1=NCCN1C(=O)Cc1cccs1`, the z-score amounted to 0.0271.
The molecule `COc1ccc(NC(=O)c2cccs2)cc1NC(=O)c1ccco1` returned a z-score of -0.191.
Molecule `Cc1cccc(C)c1C(OCCN(C)C)C1CCCCC1` (stereo unspecified) registered a z-score of 1.12.
In the case of `Cc1cccc(C)c1NC(=O)c1c(-c2ccccc2)noc1C`, the z-score was -0.0725.
The value for `C/C(=C\C(=O)c1ccc(Cl)cc1)Nc1ccc(N2CCOCC2)cc1` was -0.751.
`CCc1ccc(/C=N/NC(=O)c2cc(-c3ccccc3OC)nc3ccccc23)s1` had a z-score of 0.385.
Regarding `Cc1ccc(CN2CCc3c(OCc4ccc(F)cc4)cccc3C2=O)cc1`, the z-score worked out at 0.0736.
The value for `C(#CCN1CCC(Cc2ccccc2)CC1)COCCOCc1ccccc1` was -0.206.
The value for `Cn1ncc2c(N3CCN(c4ccccc4F)CC3)ncnc21` was -0.248; that for `COc1ccc(-c2nc3c(c4nnc(SC(C)C(=O)Nc5ccc(C)cc5)n24)COC(C)(C)C3)cc1` (stereo unspecified) was -0.373.
For `COc1ccc(OCc2nnc(SCC(=O)NNC(=O)c3ccc(C)cc3)n2C)cc1`, the z-score is -0.0492.
The molecule `Cc1ccc2ncc(NC(=O)c3ccc(F)cc3)c(=O)n2c1` displayed a z-score of -0.426.
The value for `O=S(=O)(NCc1cccnc1)c1ccc(Cl)c(Cl)c1` was 0.0681; that for `CCN=C1S/C(=C\c2cc(Br)ccc2OCC(=O)OCC)C(=O)N1CC` was -0.0384.
The value for `O=C(Nc1c(Cl)cc(Cl)cc1-c1nc2ccccc2s1)c1ccc(Br)o1` was -0.0849.
Regarding `CCCCOC(=O)Cn1c2ccc(OC)cc2c2nc3ccccc3nc21`, the z-score was -0.283.
Regarding `Cc1cc(C)nc(N2CCCC(C(=O)NCCC3=CCCCC3)C2)n1` (stereo unspecified), the z-score amounted to 0.000737.
The molecule `CCCc1ccc(OCc2ccc(C(=O)O)o2)c(OC)c1` gave a z-score of -1.28.
`COc1ccc(S(=O)(=O)NNC(=O)c2csc(-n3nc(C)cc3C(F)(F)F)n2)cc1` had a z-score of 0.265.
On to `CCn1c(Cc2ccccc2)nnc1SCC(=O)Nc1ccc(S(N)(=O)=O)cc1`, for which the z-score was -0.143.
Take `CC1CCCCC1NC(=O)COC(=O)c1ccccc1NC(=O)c1ccco1` (stereo unspecified): the z-score was 0.824.
In the case of `CCOC(=O)N1CCN(C(=O)CCC(=O)N2CCOc3ccc(C)cc32)CC1`, the z-score came out at 1.07.

The values above are taken from PubChem BioAssay AID488969 (Vanderbilt High Throughput Screening Facility, 2010).
